{"source": "PubChem BioAssay AID624296", "about": "(National Center for Advancing Translational Sciences (NCATS), 2012)", "note": "Hit rate of the full screen: of about 350,000 compounds, about 9,900 (2.8%) were called active. The shares of active, inactive and inconclusive entries below differ from those in the screen. Calls follow the shape of the dose curve; as a rule, active = well fitted activation curve with a large enough effect; inconclusive = small, poorly fitted or top-dose-only effect; inactive = no such curve, though single readings can be large or run the other way. No potency is given beside an inconclusive call; the fits are too rough. Potency is read from the fitted curve at half-maximal effect; tags tell the direction and shape of the fitted curve.", "data": [{"experiment": "A quantitative high throughput screen for small molecules that induce DNA re-replication in MCF 10a normal breast cells; also: nearly all actives have a fitted effect of over 50% in size; as to activity, positive = re-replication: % of control where 0% means no effect.", "settings": "MCF 10A DNA re-replication, Hoechst nuclear intensity, 48 h; activity, positive = re-replication: at 46.1 µM (top of the series)", "values": [{"smiles": "C[C@@]12C(=O)N(CCc3c[nH]c4ccccc34)CC(=O)N1[C@H]1c3ccccc3OC[C@@H]1[C@@H]2c1ccccc1", "Potency": "inactive"}, {"smiles": "COc1ccccc1N(CC(=O)N1CCCCCC1)S(C)(=O)=O", "Potency": "active: 0.326 µM"}, {"smiles": "CN(C)c1ccc2c(c1)Sc1cc(N(C)C)ccc1N2C(=O)c1ccccc1", "Potency": "inactive"}, {"smiles": "O=C(Oc1ccc(Br)cc1C(=S)N1CCOCC1)c1ccc([N+](=O)[O-])cc1[N+](=O)[O-]", "Potency": "inconclusive [activator, single point]"}, {"smiles": "O=C(NCc1ccncc1)c1nc(-c2ccc(C(F)(F)F)cc2)no1", "Potency": "inactive"}, {"smiles": "O=C(Cc1ccccc1)NNC(=O)Cc1ccccc1", "Potency": "inactive"}, {"smiles": "CN=c1scc(-c2cccs2)n1/N=C/c1ccc(O)c(O)c1O", "Potency": "inactive"}, {"smiles": "C=C(C)C(=O)Nc1cccc(C2=NOC3(C2)C[C@H](C(N)=O)N(C(=O)/C=C/C)C3)c1", "note": "(stereo not given in full)", "Potency": "inactive"}, {"smiles": "CCc1nnc(NC(=O)c2cc(-c3cccnc3)nc3ccccc23)s1", "Potency": "inconclusive [activator, partial curve, poor fit]"}, {"smiles": "CCN(CC)CC(=O)Nc1ccc(C)cc1C(=O)c1ccccc1", "Potency": "inconclusive [activator, single point]"}, {"smiles": "O=[N+]([O-])/C(C(Cl)=C(Cl)Cl)=C(/Sc1ccccc1)N1CCCCC1", "Potency": "inconclusive [activator, partial curve, poor fit]"}, {"smiles": "Cn1c(C(=O)N2CCN(c3cccc(C(F)(F)F)c3)CC2)cc2sccc21", "Potency": "inconclusive [activator, single point]"}, {"smiles": "CCCC[n+]1ccn(C2=C([O-])c3ccccc3C(=O)/C2=N\\S(=O)(=O)c2ccc(Br)cc2)c1", "Potency": "inconclusive [activator, partial curve]", "activity, positive = re-replication": "inconclusive: 10.4% [activator]"}, {"smiles": "CCc1ccc(CCC(=O)Nc2ncc(Cc3ccccc3Cl)s2)o1", "Potency": "active: 1.64 µM"}, {"smiles": "Cc1n[nH]c(C)c1N=Nc1cc(Cl)ccc1Cl", "Potency": "inconclusive [activator, partial curve, poor fit]"}, {"smiles": "CCOC(=O)C1(CCC(C)C)CC(CSc2nc3ccccc3[nH]2)OC1=O", "note": "(stereo not given)", "Potency": "active: 6.51 µM"}, {"smiles": "Cc1ccc(NC(=O)c2ccc(CNc3c(N4CCC(C)CC4)c(=O)c3=O)cc2)cc1", "Potency": "inconclusive [activator, single point]"}, {"smiles": "Cc1cc(C)nc(N2CCC(C(=O)N3CCN(c4cc(Cl)ccc4C)CC3)CC2)n1", "Potency": "inconclusive [activator, single point]"}, {"smiles": "COc1ccc(CCNC(=O)/C=C/c2ccco2)cc1", "Potency": "inactive"}, {"smiles": "COc1ccc(-c2cc(C(=O)N/N=C/c3ccc4c(c3)OCO4)c3ccccc3n2)c(OC)c1", "Potency": "inconclusive [activator, single point]"}, {"smiles": "CC(C)CCNC(=O)c1ccc2c(c1)N(C)C(=O)c1ccccc1S2", "Potency": "inconclusive [activator, partial curve, poor fit]"}, {"smiles": "Cc1ccc2[nH]c(=O)c(C(c3nnnn3Cc3ccccc3)N3CCc4ccccc43)cc2c1", "note": "(stereo not given)", "Potency": "inactive"}, {"smiles": "c1ccc2c3n(nc2c1)CCCO3", "Potency": "inconclusive [activator, partial curve, poor fit]"}, {"smiles": "COC(=O)Cn1c(Cc2ccccc2)nc2ccccc21", "Potency": "inconclusive [activator, partial curve, poor fit]"}, {"smiles": "COc1cc2c(cc1OC)CN(CC(=O)Nc1ccc(S(=O)(=O)N3CCCC3)cc1)CC2", "Potency": "inconclusive [activator, single point]"}, {"smiles": "COC(=O)[C@H](Cc1ccccc1)N(C)S(=O)(=O)c1cccc(S(=O)(=O)N(C)[C@@H](Cc2ccccc2)C(=O)OC)c1", "Potency": "inactive"}, {"smiles": "CC(C)(C)c1csc(NC(=O)c2c(F)c(F)c(F)c(F)c2F)n1", "Potency": "inconclusive [activator, single point]"}, {"smiles": "COc1ccc(S(=O)(=O)Nc2cc(C)ccc2OC)cc1C", "Potency": "inconclusive [activator, single point]"}, {"smiles": "Cc1ccc(-c2nnc(N3CCCCC3)c3ccccc23)cc1S(=O)(=O)N(C)C", "Potency": "inconclusive [activator, partial curve, poor fit]"}, {"smiles": "CCN(CCCNC(=O)c1[nH]c(C)c(C(C)=O)c1C)c1cccc(C)c1", "Potency": "inconclusive [activator, partial curve, poor fit]"}, {"smiles": "CN(C)S(=O)(=O)c1cccc(C(=O)Nc2cc(Cl)cc(Cl)c2)c1", "Potency": "inconclusive [activator, single point]"}, {"smiles": "O=C(c1ccc(Cl)c(S(=O)(=O)N2CCOCC2)c1)N1CCN(Cc2ccccc2)CC1", "Potency": "inactive"}, {"smiles": "Cc1cccc(NC2=C(NC(=O)c3ccccc3)C(=O)c3ccccc3C2=O)c1", "Potency": "inconclusive [activator, single point]"}, {"smiles": "Cn1cnnc1SCC(=O)Nc1cccc(C(=O)O)c1", "Potency": "inactive"}, {"smiles": "COC(=O)c1cccc(NC(=O)c2ccco2)c1", "Potency": "inactive"}, {"smiles": "Cc1cccc(N2CCN(C(=O)c3ccc(CNc4c(N5CCC(C)CC5)c(=O)c4=O)cc3)CC2C)c1", "note": "(stereo not given)", "Potency": "inactive"}, {"smiles": "Cc1ccc2nc(SCC(=O)N(C)C3CCS(=O)(=O)C3)[nH]c2c1", "note": "(stereo not given)", "Potency": "inactive"}, {"smiles": "COc1ccccc1C(=O)/C=C/c1ccc(N2CCCCC2)c([N+](=O)[O-])c1", "Potency": "active: 6.51 µM"}, {"smiles": "Cc1ccc(C(=O)C2CCN(C(=S)NCCCOC(C)C)CC2)cc1", "Potency": "inactive"}, {"smiles": "CCCC(=O)Nc1ccc(C(N)=O)cc1", "Potency": "inactive"}, {"smiles": "CC(=O)N1CCc2cc(S(=O)(=O)NCCCN3CCC(C)CC3)ccc21", "Potency": "inactive"}, {"smiles": "CC(C)Oc1ccc(-c2nc(NCC3CCCO3)c3ccccc3n2)cc1", "note": "(stereo not given)", "Potency": "inconclusive [activator, single point]"}, {"smiles": "COc1ccc(OCc2nnc(SCC(=O)NC3CC4CCC3C4)o2)cc1", "note": "(stereo not given)", "Potency": "inconclusive [activator, single point]"}, {"smiles": "C/C(=N\\NC(=O)c1ccccc1F)c1cccc(NC(=O)c2ccccc2)c1", "Potency": "inactive"}, {"smiles": "Nc1nnc(-c2ccc(F)cc2)s1", "Potency": "inconclusive [activator, partial curve, poor fit]"}, {"smiles": "C/C(=N\\NC(=O)c1ccc(Cn2cc(Br)cn2)o1)c1ccc(NC(=O)c2ccoc2C)cc1", "Potency": "inconclusive [activator, single point]"}, {"smiles": "CC1CN(CC(O)COc2ccc(C#N)cc2)CCN1CC(O)COc1ccc(C#N)cc1", "note": "(stereo not given)", "Potency": "inactive"}, {"smiles": "C[C@H]1c2cccc(O)c2C(O)=C2C(=O)[C@]3(O)C(O)=C(C(N)=O)C(=O)[C@@H](N(C)C)[C@@H]3[C@@H](O)[C@@H]21", "Potency": "inconclusive [activator, full curve, poor fit]"}, {"smiles": "Cc1ccc(-c2cccc(C3CC=CC4C3C(=O)N(Cc3ccccc3)C4c3ccc4ccccc4c3)c2)cc1", "note": "(stereo not given)", "Potency": "inconclusive [activator, single point]"}, {"smiles": "Cc1ccc(-c2nc(CNC(=O)c3ccco3)cs2)cc1", "Potency": "inactive"}, {"smiles": "O=S(=O)(c1ccc(Oc2ccc(Cl)cc2)nc1)N1CCOCC1", "Potency": "inactive"}, {"smiles": "CC(C)(C)C(=O)c1no[n+]([O-])c1/C(=N/O)C(C)(C)C", "Potency": "inconclusive [activator, single point]"}, {"smiles": "CC(C)=CCCC1(C)C=Cc2c(c(C)cc3c2[nH]c2cc(O)ccc23)O1", "note": "(stereo not given)", "Potency": "inconclusive [activator, single point]"}, {"smiles": "COc1cc(O)c(C(CC(=O)N2CCOCC2)c2ccc(N(C)C)cc2)c(OC)c1", "note": "(stereo not given)", "Potency": "inactive"}, {"smiles": "CCN(Cc1ccccc1)C(=O)COC(=O)c1cnc(C)cn1", "Potency": "inconclusive [activator, single point]"}, {"smiles": "CCCC(=O)N1CCCC(c2nc(-c3cccc(OC)c3)no2)C1", "note": "(stereo not given)", "Potency": "inactive"}, {"smiles": "COc1ccc(CC(=O)Nc2nc(-c3ccc(F)c(F)c3)cs2)cc1", "Potency": "inconclusive [activator, partial curve, poor fit]"}, {"smiles": "O=C(COc1ccc(S(=O)(=O)NC2CCCCC2)cc1)NC1CCCCC1", "Potency": "inconclusive [activator, partial curve, poor fit]"}, {"smiles": "COc1ccc(C(=O)Nc2ccc3[nH]ccc3c2)cc1", "Potency": "inconclusive [activator, single point]"}, {"smiles": "COc1ccccc1OCCNC(=O)c1cccc(S(=O)(=O)N2CCN(Cc3ccccc3)CC2)c1", "Potency": "inactive"}, {"smiles": "Cc1cc(C)cc(NC(=O)c2ccc(Cn3nc(C)c(Cl)c3C)o2)c1", "Potency": "inconclusive [activator, single point]"}, {"smiles": "O=C(Cc1c(Cl)cccc1Cl)NCCc1ccc(Cl)cc1", "Potency": "inactive"}, {"smiles": "C/C(CCC(=O)OC[C@H]1O[C@H](C#Cc2ccccc2)C=C[C@@H]1Oc1ccc(C)cc1)=N\\O[C@@H](C)CN1CCCCc2nc(C)c(C)cc21", "Potency": "inconclusive [activator, single point]"}, {"smiles": "CS(=O)(=O)N(CC(=O)NCc1ccc2c(c1)OCO2)c1cccc(Cl)c1", "Potency": "inactive"}, {"smiles": "COc1ccc(NC(=O)N(CCN2CCCC2)Cc2cc3cc(OC)c(OC)cc3[nH]c2=O)cc1", "Potency": "inconclusive [activator, partial curve, poor fit]"}, {"smiles": "COc1ccccc1-c1sc2cc3c(cc2c1C#Cc1cncn1C)OCO3", "Potency": "inconclusive [activator, single point]"}, {"smiles": "CCCc1ccc(OCc2ccc(C(=O)Nc3cccc(C)n3)o2)c(OC)c1", "Potency": "inconclusive [activator, partial curve, poor fit]"}, {"smiles": "CC(=O)Oc1ccc(/C=C2/SC(=S)N(Cc3ccccc3)C2=O)cc1", "Potency": "active: 3.26 µM"}, {"smiles": "COc1ccc(C(=O)Nc2ccc(N3CCN(C(=O)c4ccccc4C)CC3)cc2)cc1", "Potency": "inconclusive [activator, partial curve, poor fit]"}]}]}
